Measured values taken from patent US20240141070A1 (JIANGSU ALPHAMAB BIOPHARMACEUTICALS, published 2024).

B1: KN052-1 (bispecific antibody, human IgG1, kappa)
light: EIVLTQSPATLSLSPGERATLSCRASQSVGSYLAWYQQKPGQAPRLLIYDASNRATGIPARFSGSGSGTDFTLTISSLEPEDFAVYYCQQRSNWPPGYTFGQGTKLEIKRTVAAPSVFIFPPSDEQLKSGTASVVCLLNNFYPREAKVQWKVDNALQSGNSQESVTEQDSKDSTYSLSSTLTLSKADYEKHKVYACEVTHQGLSSPVTKSFNRGEC
heavy: QVQLVESGGGLVQPGGSLRLSCAASGKMSSRRCMAWFRQAPGKERERVAKLLTTSGSTYLADSVKGRFTISRDNSKNTVYLQMNSLRAEDTAVYYCAADSFEDPTCTLVTSSGAFQYWGQGTLVTVSSGAPQVQLQQSGPGLVKPSQTLSLTCAISGDSVSSNSVSWDWIRQSPSRGLEWLGRTYYRSKWYNEYAVSVESRITINPDTSKNQFSLQLNSVTPEDTAIYFCVRNDYFFDLWGRGTLVTVSS[gap - human IgG1 constant region]
notes: Expressed in HEK293, purified on protein A
B2: KN052-2 (bispecific antibody, human IgG1, kappa)
light: B1 light
heavy: QVQLVESGGGLVQPGGSLRLSCAASGKMSSRRCMAWFRQAPGKERERVAKLLTTSGSTYLADSVKGRFTISRDNSKNTVYLQMNSLRAEDTAVYYCAADSFEDPTCTLVTSSGAFQYWGQGTLVTVSSASTKGPSVFPLAGAPQVQLQQSGPGLVKPSQTLSLTCAISGDSVSSNSVSWDWIRQSPSRGLEWLGRTYYRSKWYNEYAVSVESRITINPDTSKNQFSLQLNSVTPEDTAIYFCVRNDYFFDLWGRGTLVTVSS[gap - human IgG1 constant region]
B3: KN052-4 (bispecific antibody, human IgG1, kappa)
light: B1 light
heavy: QVQLQQSGPGLVKPSQTLSLTCAISGDSVSSNSVSWDWIRQSPSRGLEWLGRTYYRSKWYNEYAVSVESRITINPDTSKNQFSLQLNSVTPEDTAIYFCVRNDYFFDLWGRGTLVTVSS[gap - human IgG1 constant region]STKGPSVFPLAGAPQVQLVESGGGLVQPGGSLRLSCAASGKMSSRRCMAWFRQAPGKERERVAKLLTTSGSTYLADSVKGRFTISRDNSKNTVYLQMNSLRAEDTAVYYCAADSFEDPTCTLVTSSGAFQYWGQGTLVTVSS
B4: KN052-3 (bispecific antibody, human IgG1, kappa)
light: B1 light
heavy: QVQLQQSGPGLVKPSQTLSLTCAISGDSVSSNSVSWDWIRQSPSRGLEWLGRTYYRSKWYNEYAVSVESRITINPDTSKNQFSLQLNSVTPEDTAIYFCVRNDYFFDLWGRGTLVTVSS[gap - human IgG1 constant region]APQVQLVESGGGLVQPGGSLRLSCAASGKMSSRRCMAWFRQAPGKERERVAKLLTTSGSTYLADSVKGRFTISRDNSKNTVYLQMNSLRAEDTAVYYCAADSFEDPTCTLVTSSGAFQYWGQGTLVTVSS
notes: also called KNO52-3

biological target: T1, human PD-L1 protein on cells (A375-hPD-L1 cells; PD-L1 aAPC/CHO-K1 cells; PD-L1-expressing CHO cells) (human, UniProt Q9NZQ7); assay: flow cytometry (MFI) on A375-hPD-L1 cells
Sequence of UniProt Q9NZQ7 (Q9NZQ7 19-290): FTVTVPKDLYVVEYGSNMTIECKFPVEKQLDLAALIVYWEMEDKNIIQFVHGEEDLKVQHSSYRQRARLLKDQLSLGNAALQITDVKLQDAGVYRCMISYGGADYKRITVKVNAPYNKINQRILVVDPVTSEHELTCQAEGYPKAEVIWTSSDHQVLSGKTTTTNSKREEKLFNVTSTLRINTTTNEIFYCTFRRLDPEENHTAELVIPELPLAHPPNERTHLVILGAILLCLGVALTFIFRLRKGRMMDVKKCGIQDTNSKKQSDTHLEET
T1 construct: whole, on cells

Row | binding result | Binder
1 | binds | B1
2 | binds | B2
3 | binds | B3
4 | binds | B4
